Laboratory results: PubChem BioAssay AID2107 (National Center for Advancing Translational Sciences (NCATS), 2009)
Several values for one entry are separate records, joined by “and”; a condition that tells them apart may be missing. Identical values can stand only once. The whole screen tested about 240,000 compounds, of which about 20 (0.008%) were called active. Inconclusive means that the source gave no clear call. Such entries were picked first, then a sample of the others. Calls follow the shape of the dose curve; as a rule, active = well fitted inhibition curve with a large enough effect; inconclusive = small, poorly fitted or top-dose-only effect, or effect the other way; inactive = flat fitted curve, though single readings scatter. Potencies of inconclusive entries are doubtful fits and often do not repeat. Some compounds were tested as several samples or in several runs, with calls that do not always agree.

Target: Alpha-galactosidase A (Homo sapiens) (UniProt P06280)
UniProt P06280, sequence (P06280 whole entry, looked up): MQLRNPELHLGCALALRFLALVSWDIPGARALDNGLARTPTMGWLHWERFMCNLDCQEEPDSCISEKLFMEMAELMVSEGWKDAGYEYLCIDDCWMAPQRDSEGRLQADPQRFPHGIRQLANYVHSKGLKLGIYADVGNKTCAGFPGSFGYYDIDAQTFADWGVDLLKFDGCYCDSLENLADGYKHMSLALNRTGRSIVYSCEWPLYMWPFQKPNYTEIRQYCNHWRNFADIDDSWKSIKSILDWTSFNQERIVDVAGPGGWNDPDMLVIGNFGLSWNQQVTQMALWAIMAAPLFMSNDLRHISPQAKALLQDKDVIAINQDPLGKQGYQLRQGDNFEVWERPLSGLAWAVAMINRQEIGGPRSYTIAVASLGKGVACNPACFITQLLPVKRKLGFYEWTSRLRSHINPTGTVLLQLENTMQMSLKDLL
Assay: qHTS Assay for Inhibitors and Activators of Human alpha-Galactosidase From Spleen Homogenate;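 as to activity change, negative = inhibition: 0% = enzyme with vehicle and -100% = no enzyme basal signal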
Conditions: 4MU-alpha-Gal fluorescence, 40 min; activity change, negative = inhibition: at 80 µM (top of the series)
Description: NIH Chemical Genomics Center [NCGC] NIH Molecular Libraries Probe Production Centers Network [MLPCN] MLPCN Grant: R03 MH084842-01 Assay Submitter (PI): Wei Zheng NCGC Assay Overview: Alpha-galactosidase is a homodimeric glycoprotein that hydrolyzes the terminal alpha-galactosyl moieties from glycolipids and glycoproteins. Deficiency of this enzyme results in Fabry Disease with progressive accumulation of globotriaosylceramide and other glycosphingolipids in vascular endothelial cells that causes renal failure, myocardial infarction and stroke, and premature death in patients. It has been reported that the improper folding and trafficking of alpha-galactosidase resulting from genetic mutations may account for a significant number of Fabry patients. […] We optimized this alpha-galactosidase assay in 1536-well plate format for identification of novel small molecule inhibitors or activators with structures other than the sugar analogs in order to develop new pharmacological chaperones. In particular, this assay is directed towards discovering compounds active in more natural setting, tissue homogenate, that may have been missed by screens of the purified enzyme under more stringent conditions.
NCGC Assay Protocol Summary: This is a fluorogenic enzyme assay with 4-methylumbelliferyl-alpha-D-galactopyranoside as the substrate and human spleen homogenate containing alpha-galactosidase as the enzyme preparation. Upon hydrolysis of this fluorogenic substrate, the resulting product, 4-methylumbelliferone (which excites at 365 nm and emits at 440 nm) can be detected by a fluorescence plate reader. Data were normalized to the controls for basal activity (without enzyme) and 100% activity (with enzyme). The AC50 values were determined from concentration-response data modeled with the standard Hill equation. Assay buffer: 50 mM citric acid (titrated with potassium phosphate to pH 5.0), 0.01% Tween-20 (pH 5.0 is an optimal condition for this enzyme assay) 1536-well assay protocol for the alpha-galactosidase from human spleen homogenate: (1) Add 2 ul/well spleen homogenate (1 ug) (2) Add 23 nL compounds in DMSO solution. The final titration was 0.5 nM to 58 uM. (3) Add 2 ul of substrate (1 mM final) (4) Incubate at 37C for 40 min (5) Add 2 ul stop solution (1M NaOH and 1M Glycine mixture, pH 10) (6) Detect the assay plate in a ViewLux plate reader (PerkinElmer) with Ex=365 nm and Em=440nm. Keywords: Alpha-galactosidase, Fabry Disease, pharmacological chaperone, chaperone therapy, high throughput screening, alpha- galactosidase inhibitor, MLSMR, MLSCN, NIH Roadmap, qHTS and NCGC
Potency is read from the fitted curve at half-maximal effect; tags tell the direction and shape of the fitted curve.

Compound	Potency	activity change, negative = inhibition
CCC1Cc2cc(O)ccc2C2=C1c1ccc(O)cc1CC2CC (stereo not drawn)	inconclusive: 28.2 µM [activator, single point]	–
Cc1cccc(C2=NN(c3ccccc3)[C@H](CO)[C@H]2c2ccc(Cl)cc2)c1	inconclusive: 35.5 µM [activator, partial curve]	–
Cc1cccc(CNc2cc(-c3ccc(N(C)C)cc3)ncn2)c1	inconclusive: 11.2 µM [inhibitor, single point]	–
Cc1ccc(NC(=O)CNc2ccc(OC(C)C)cc2)cc1	inactive	–
Oc1ccccc1N=Cc1c(O)ccc2oc3c(c12)CCCC3	inactive	–
Cc1c(C#N)c2ccccc2n1CC(=O)N1CCCC1	inconclusive: 31.6 µM [inhibitor, partial curve]	–
COC(=O)C(Cc1ccccc1)NC(=S)NC(=O)c1ccccc1 (stereo not drawn)	inconclusive: 35.5 µM [inhibitor, partial curve]	–
Nc1ccc(-c2ccc(N)cc2C(F)(F)F)c(C(F)(F)F)c1	inconclusive: 35.5 µM [inhibitor, single point]	–
COc1ccccc1OCC(O)CNCc1ccc2c(c1)OCO2 (stereo not drawn)	inactive	–
CNC(=O)c1cc2c(=O)n3cc(C)ccc3nc2n(C(C)C)c1=N	inconclusive: 14.1 µM [activator, single point]	–
COCCNC(=O)c1c(N)n(-c2cccc(C)c2)c2nc3ccccc3nc12	inconclusive: 4.47 µM [activator, full curve]	–
CN(C)c1ncc2nc(-c3ccc(F)cc3)c(=O)n(CCc3ccccc3)c2n1	inconclusive: 44.7 µM [activator, partial curve, poor fit]	–
CC(=O)N/C(=C/c1ccc2c(c1)OCO2)C(=O)NCCO	inconclusive: 0.708 µM [inhibitor, full curve, poor fit]	–
CC1Cn2c(nc3sc4c(c3c2=O)CCC4)N1CCO (stereo not drawn)	inconclusive: 39.8 µM [activator, single point]	–
CCOc1cccc(-c2nnc(SCC(=O)Nc3cc(OC)cc(OC)c3)n2N)c1	inconclusive: 44.7 µM [inhibitor, single point]	–
CC(c1nnc(SCC(=O)Nc2sccc2C#N)n1-c1ccc(Cl)cc1)N(C)C (stereo not drawn)	inconclusive: 31.6 µM [activator, partial curve]	–
CC(=O)Oc1cc2oc(=O)cc(C)c2cc1Cl	inconclusive: 35.5 µM [activator, partial curve]	–
CC(=O)Nc1ccc(S(=O)(=O)C(C#N)c2nc3ccccc3nc2NCCCO)cc1 (stereo not drawn)	inconclusive: 35.5 µM [activator, partial curve]	–
O=C(CSC1=NCCN1)NC1CCCCCC1	inconclusive: 20 µM [inhibitor, partial curve]	–
CCc1cccc2nc3c(c([Si](C)(C)C)c12)Cn1c-3cccc1=O	inconclusive: 44.7 µM [activator, single point]	–
COc1ccc(OCCSc2ncnc3nc[nH]c23)cc1	inactive	–
CCCCN(CC)C(=O)c1cc2cc3ccc(OC)cc3nc2o1	inconclusive: 22.4 µM [activator, partial curve]	–
CCOC(=O)/C(C#N)=C1\Nc2ccccc2N=C1N(CC(C)C)CC(C)C	inactive	–

Compound	Potency	activity change, negative = inhibition
COc1ccccc1NC(=O)C1CCC(CNc2c(N3CCCCC3)c(=O)c2=O)CC1 (stereo not drawn)	inconclusive: 39.8 µM [inhibitor, single point]	–
CCOC(=O)c1cc(-c2ccccc2)n(CC(=O)Nc2cc(OC)cc(OC)c2)c1C	inconclusive: 10 µM [inhibitor, full curve]	–
N#Cc1c(C(F)(F)F)cc(-c2ccccc2Cl)[nH]c1=O	inconclusive: 39.8 µM [activator, single point]	–
Cc1ccc2cc(CN(CC3CCCO3)S(=O)(=O)c3ccccc3)c3nnnn3c2c1 (stereo not drawn)	inactive	–
CN(C)CCNC(=O)c1coc(=O)c(Br)c1	inconclusive: 39.8 µM [activator, single point]	–
N#CCSc1ccsc1C(=O)Nc1ccc(F)cc1	inconclusive: 44.7 µM [activator, single point]	–
CCC(NC(=O)/C(=C\c1ccc2c(c1)OCO2)NC(C)=O)C(=O)O (stereo not drawn)	inconclusive: 44.7 µM [inhibitor, single point]	–
CC(=O)c1ccc(/C=C/c2nc3ccccc3n2C)o1	inconclusive: 35.5 µM [activator, partial curve]	–
COc1ncc2nc(CCc3ccccc3)c(=O)n(-c3ccccc3)c2n1	inconclusive: 22.4 µM [inhibitor, single point]	–
COc1ccccc1N1CCN(CCCCN2C(=O)c3ccccc3C2=O)CC1	active: 10 µM	–
CC(=O)Nc1ccc(S(=O)(=O)C(C#N)c2nc3ccccc3nc2NCCN2CCOCC2)cc1 (stereo not drawn)	inconclusive: 50.1 µM [activator, single point]	–
O=S1(=O)C=C(Oc2ccc(F)cc2)c2ccccc21	inactive	–
Cc1cc(OCC(=O)NCc2cccnc2)ccc1[N+](=O)[O-]	inactive	–
Cc1cc(-c2n[nH]c(=S)n2/N=C/c2cccc(O)c2)n[nH]1	inactive	–
COc1ccc(-n2c(N)c(C(=O)NCc3ccco3)sc2=S)cc1	inactive	–
O=C(Sc1nnc(-c2ccccc2)o1)N1c2ccccc2Sc2ccccc21	inactive	–
O=c1ccc2cc(O)c(O)cc2o1	inconclusive: 14.1 µM [activator, partial curve] and inconclusive: 35.5 µM [activator, single point] and inconclusive: 17.8 µM [activator, partial curve]	–
CCOC(=O)c1cc2c(=O)n3ccccc3nc2n(Cc2ccco2)c1=NC(=O)c1ccc(OC)cc1	inconclusive: 31.6 µM [activator, partial curve]	–
CCC(C)(C)c1ccc(OCCCC[n+]2ccc(C)cc2)c(C(C)(C)CC)c1	inconclusive: 28.2 µM [activator, single point]	–
O=C1Nc2ccccc2C(O)(C(=O)NCc2ccco2)N1c1ccccc1 (stereo not drawn)	inconclusive: 44.7 µM [inhibitor, single point]	–
C[C@H]1O[C@@H](O[C@H]2[C@@H](O)C[C@H](O[C@H]3[C@@H](O)C[C@H](O[C@H]4CC[C@@]5(C)[C@H](CC[C@@H]6[C@@H]5C[C@@H](O)[C@]5(C)[C@@H](C7=CC(=O)OC7)CC[C@]65O)C4)O[C@@H]3C)O[C@@H]2C)C[C@H](O)[C@@H]1O	inconclusive: 31.6 µM [inhibitor, partial curve]	–
N#Cc1c(-c2ccco2)cc(-c2cccnc2)nc1N	inconclusive: 39.8 µM [activator, single point]	–
CCOCCCn1c(=NC(=O)c2ccco2)c(C(=O)OCC)cc2c(=O)n3cccc(C)c3nc21	inconclusive: 28.2 µM [activator, single point]	–

Compound	Potency	activity change, negative = inhibition
O=C(O)CCc1ccc(-c2ccc(F)cc2)n1CC1CCCO1 (stereo not drawn)	inconclusive: 25.1 µM [activator, single point]	–
CCNS(=O)(=O)c1cc(Br)ccc1OC	inconclusive: 35.5 µM [inhibitor, partial curve]	–
Cc1ccc(C(=O)NCCn2c(N)c(C#N)c3nc4ccccc4nc32)cc1	inconclusive: 35.5 µM [activator, partial curve]	–
CCn1c(=N)c(C(=O)NCCCOC)cc2c(=O)n3cccc(C)c3nc21	inconclusive: 35.5 µM [activator, partial curve]	–
S=C(c1ccc(-c2cccc(Cl)c2)o1)N1CCOCC1	inactive	–
Cn1c(C(F)(F)F)nc2c(=O)oc3ccccc3c21	inconclusive: 44.7 µM [activator, single point]	–
CC(C)CC(NC(N)=O)C(=O)NCCc1ccc(Cl)cc1Cl (stereo not drawn)	inactive	–
CN(C)c1nc(NC2CCC(NC(=O)c3ccc(F)c(F)c3)CC2)nc2ccccc12 (stereo not drawn)	inactive	–
COc1ccc(COC(=O)N/C=C/c2ccco2)cc1	inactive	–
C=CCc1c(C)nc(C)nc1N/N=C/c1ccccc1O	inconclusive: 44.7 µM [activator, single point]	–
COc1ccc2cc3cc(C(=O)NCc4ccco4)oc3nc2c1	inconclusive: 35.5 µM [activator, partial curve]	–
COCCNC(=O)C(c1ccc(F)cc1)N(CC1CCCO1)C(=O)CCC(=O)Nc1ccccn1 (stereo not drawn)	inconclusive: 11.2 µM [activator, single point]	–
COc1ccc2[nH]c3c(=O)n(/N=C/[C@H]4C(C)C=C(C)CC4C)c(=O)[nH]c3c2c1 (stereo partly drawn)	inconclusive: 35.5 µM [activator, partial curve]	–
COc1ccc(C(=O)Nc2ccccc2C(=O)N/N=C/c2cccc3ccccc23)cc1	inactive	–
O=C(O)CCN1CCOCC1	inconclusive: 50.1 µM [inhibitor, single point]	–
COc1cccc(Oc2c(C)oc3c(CN4CCCCC4)c(O)ccc3c2=O)c1	–	inconclusive: 41.5% [activator]
COc1ccc(/C=N/NC(=O)CCSc2nc3ccccc3s2)cc1OC	inconclusive: 31.6 µM [activator, partial curve]	–
Cc1nc2ccc(-c3nc4ccc(N)cc4[nH]3)cc2[nH]1	inconclusive: 35.5 µM [activator, partial curve]	–
Cc1c(O)ccc2c3c(c(=O)oc12)CCC(C)C3 (stereo not drawn)	inconclusive: 35.5 µM [activator, partial curve]	–
Cc1ccc(-c2cn3cccc(C)c3n2)cc1	inactive	–
Nc1c(Cl)cc(Cl)cc1C(=O)OCC(=O)N1CCCC1	inconclusive: 31.6 µM [activator, partial curve]	–
Nc1cccc2nc3ccccc3cc12	inconclusive: 28.2 µM [activator, partial curve]	–
